These results are taken from PubChem BioAssay AID1645887 (National Center for Advancing Translational Sciences (NCATS), 2021).

Each structure is given as a SMILES string. Values joined by “and” are separate entries in the source; they are usually repeats but may differ in a detail not shown here. Identical values can stand only once. In all, about 16,000 compounds went through this assay and about 40 (0.2%) were called active. Another 1% or so got no clear call; they are omitted. Calls follow the shape of the dose curve; as a rule, active = well fitted activation curve with a large enough effect; inconclusive = small, poorly fitted or top-dose-only effect, or another doubt; inactive = no such curve, though single readings can be large or run the other way. The list shows a part of the results. Positions of bridges follow the written chain, without caps; N, C: chain ends. Non-standard residues stand in square brackets, D forms with d. Residues, ends and D or L forms follow the SMILES beside them. *: point of attachment. pGlu = O=C1CC[C@@H](C(=O)O)N1; X4 = CC[C@H](C)CCCCC(=O)*; Dab = NCC[C@H](N)C(=O)O
% is scaled to controls: 0 for no effect and ±100 for the full control effect.

This assay has as its target Rap guanine nucleotide exchange factor 4 (Homo sapiens) (UniProt Q8WZA2). Kind of assay: Validation qHTS for agonist of cAMP-regulated guanine nucleotide exchange factor 4 (EPAC2).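 Also: exchange makes BODIPY-GDP fluorescence drop when released from Rap1B; series mostly up to about 150 µM.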 The following applies: EPAC2 Rap1B BODIPY-GDP exchange, fluorescence; activation: active compounds read high. The method, boiled down: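 Signal normalized against 6.5 mM cAMP as agonist control. Mix of EPAC2 (100 nM), RAP1B-BODIPY-GDP (250 nM) and GDP (50 uM) was read kinetically at 480/540 nm, every 5 min over 30 min, after 5 min room-temperature incubation with compound.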
UniProt Q8WZA2, sequence (Q8WZA2 whole entry, looked up): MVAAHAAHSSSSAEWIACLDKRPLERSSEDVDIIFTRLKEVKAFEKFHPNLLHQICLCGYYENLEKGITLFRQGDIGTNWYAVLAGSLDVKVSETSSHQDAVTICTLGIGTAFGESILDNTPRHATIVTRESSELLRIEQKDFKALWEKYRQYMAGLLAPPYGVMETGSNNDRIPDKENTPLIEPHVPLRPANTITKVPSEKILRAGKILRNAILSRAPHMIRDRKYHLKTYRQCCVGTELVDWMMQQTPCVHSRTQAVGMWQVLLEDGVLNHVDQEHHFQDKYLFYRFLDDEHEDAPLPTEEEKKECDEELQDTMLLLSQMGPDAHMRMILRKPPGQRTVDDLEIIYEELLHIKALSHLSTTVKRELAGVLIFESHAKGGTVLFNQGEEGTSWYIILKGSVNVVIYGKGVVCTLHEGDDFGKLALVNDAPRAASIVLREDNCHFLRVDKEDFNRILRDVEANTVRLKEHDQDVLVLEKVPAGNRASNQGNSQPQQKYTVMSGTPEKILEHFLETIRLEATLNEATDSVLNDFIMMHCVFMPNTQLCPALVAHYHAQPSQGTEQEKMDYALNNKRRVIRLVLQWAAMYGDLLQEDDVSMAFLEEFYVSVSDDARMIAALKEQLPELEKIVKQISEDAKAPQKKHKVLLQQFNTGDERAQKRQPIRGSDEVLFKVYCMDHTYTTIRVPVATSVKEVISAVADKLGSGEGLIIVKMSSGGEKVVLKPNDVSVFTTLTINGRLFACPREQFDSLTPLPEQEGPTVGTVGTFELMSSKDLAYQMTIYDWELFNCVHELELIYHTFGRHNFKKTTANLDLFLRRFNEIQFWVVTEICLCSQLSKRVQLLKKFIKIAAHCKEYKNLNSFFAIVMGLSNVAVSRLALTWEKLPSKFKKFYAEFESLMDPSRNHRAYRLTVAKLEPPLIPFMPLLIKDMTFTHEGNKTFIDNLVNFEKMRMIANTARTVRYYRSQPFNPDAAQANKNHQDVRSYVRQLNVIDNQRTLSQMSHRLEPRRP
On the technique in general: Quantitative high-throughput screening tests each substance at several concentrations.
Regarding `CSc1ncccc1C(=O)N1CCOc2ccc(C(C)(O)CCn3cccn3)cc2C1` (stereo not given), the activation was inactive: -2.4%.

As for `C[N+]1(C)C2CCC1CC(OC(=O)C(O)c1ccccc1)C2` (stereo not given), the activation was inactive: 2.2%.

For the compound `CO[C@@]12C[C@@H](COC(=O)c3cncc(Br)c3)CN(C)[C@H]1Cc1cn(C)c3cccc2c13`, the activation was inactive: -18.3%.

For the compound `COCCn1c(=O)c(-c2ccc(Cl)cc2)nc2cnc(N(C)C)nc21`, the activation was inactive: -3.66%.

Regarding `COc1cccc(-c2ccc3ncnc(NCc4cccs4)c3c2)c1`, the activation is inactive: 2.95%.

Turning to `C[C@@H]1O[C@@H](O[C@H]2[C@H](Oc3cc(O)c4c(c3)O[C@H](c3ccc(O)cc3)CC4=O)O[C@H](CO)[C@@H](O)[C@@H]2O)[C@H](O)[C@H](O)[C@H]1O`, the activation was inactive: -8.86%.

Turning to `Cc1c(F)c(N2CCNC(C)C2)cc2c1c(=O)c(C(=O)O)cn2C1CC1` (stereo not given), the activation was inactive: -2.98%.

With `Cc1cnc(CNc2ncnc3ccc(-c4ccc(C(=O)N(C)C)cc4)cc23)cn1`, the activation is inactive: -13.4%.

As for `O=C(Nc1ccccc1)OCC(CN1CCCCC1)OC(=O)Nc1ccccc1` (stereo not given), the activation was inactive: -17.4%.

For the compound `Cc1c(C(=O)N2CCC(Cc3ccccc3)CC2)sc2ncnc(NCc3ccccn3)c12`, the activation was inactive: 4.48%.

On to `NC(=O)[C@@H]1C[C@]2(NC(=O)NC2=O)c2cc(F)ccc2O1`, for which the activation is inactive: -12.9%.

In the case of `CC(C)CN(C[C@@H](O)[C@H](Cc1ccccc1)NC(=O)O[C@@H]1CCOC1)S(=O)(=O)c1ccc(N)cc1`, the activation is inactive: -13.1%.

As to `Cc1ccc(/C=N/n2c(-c3ccccc3)csc2=S)cc1`, the activation is inactive: -15.2%.

Turning to `CC(C)(C)[C@H]1CCC(=O)N([C@H](CN=[N+]=[N-])Cc2ccccc2)CC1`, the activation is inactive: -42.4%.

As for `COc1cc(=O)n2c(c1C(=O)NCc1ccco1)CCN(C(=O)c1cccnc1SC)CC2`, the activation is inactive: 5.09%.

With `COc1c(O)cc(O)cc1O`, the activation is inactive: -5.39%.

On to `CCN(CC)CC1CCCCN1CC(=O)N1c2ccccc2C(=O)Nc2cccnc21` (stereo not given), for which the activation was inactive: -6.58%.

As for `CC#CCC(C)[C@H](O)/C=C/[C@@H]1[C@H]2C/C(=C/CCCC(=O)O)C[C@H]2C[C@H]1O` (stereo not given in full), the activation was inactive: -23.6%.

For the compound `Cc1ccccc1-c1ccc2ncnc(NCc3cccnc3)c2c1`, the activation was inactive: -7.58%.

Consider `CC1(C)C(=O)N(CCN2CCC(C(=O)c3ccc(F)cc3)CC2)c2ccccc21`, for which the activation is inactive: -41.9%.

As for `COc1cc(-c2ccc(C)cc2)cc2c1OCCN(C(=O)CCn1ccc(C)n1)C2`, the activation was inactive: -31.6%.

As for `CCCCCc1ccc(-c2cn(Cc3ccc4c(c3)C(=O)c3ccccc3C4=O)nn2)cc1`, the activation is inactive: -12.3%.

With `O=C(OC1C[C@H]2CC[C@@H](C1)[N+]21CCCC1)C(O)(c1ccccc1)c1ccccc1` (stereo not given in full), the activation is inactive: 2.26%.

As for `C[C@@H]1CN(Cc2ccc3c(c2)CN(Cc2nc(-c4ccccc4)cs2)CCO3)C[C@H](C)O1`, the activation was inactive: 1.25%.

Take `COC(=O)/C=C/c1cc(F)ccc1S(=O)(=O)Nc1ccccc1`: the activation is inactive: -14.1%.

Turning to `COCCn1c(=O)c(-c2cc(F)cc(F)c2)nc2cnc(N3CCNCC3)nc21`, the activation is inactive: -3.98%.

With `CC(=O)N1CCC[C@H]1C(=O)NCC1Cc2cc(-c3cnccn3)cc(Cl)c2O1` (stereo not given in full), the activation is inactive: -3.25%.

On to `Cc1noc(C)c1C(=O)N1CCC[C@@]2(CCN(c3ccccc3)C2)C1`, for which the activation was inactive: -9.53%.

For `CCCC(=O)Nc1ccc(OCC(O)CNC(C)C)c(C(C)=O)c1` (stereo not given), the activation is inactive: -32.2% and inactive: -9.95%.

Consider `N#CCCn1c(=O)c(-c2ccc(Cl)cc2)nc2cnc(N3CCOCC3)nc21`, for which the activation is inactive: -0.995%.

With `C[N+](C)(C)CCC(=O)c1cccc2ccccc12`, the activation is inactive: -12.1%.

As to `CC[C@H](C)CCCCC(=O)N[C@@H](CCN)C(=O)N[C@H](C(=O)N[C@@H](CCN)C(=O)N[C@H]1CCNC(=O)[C@@H]([C@H](C)O)NC(=O)[C@H](CCN)NC(=O)[C@H](CCN)NC(=O)[C@H](CC(C)C)NC(=O)[C@@H](CC(C)C)NC(=O)[C@H](CCN)NC1=O)[C@@H](C)O` (X4-[Dab]T[Dab][Dab][Dab][dL]L[Dab][Dab][dT]; lactam 4-C), the activation is inactive: -2.24%.

Turning to `CC[C@H](C)[C@H](NC(=O)[C@H](Cc1ccccc1)NC(=O)[C@H](C)NC(=O)[C@H](CC(=O)O)NC(=O)[C@H](CCCCN)NC(=O)[C@H](CO)NC(=O)[C@@H]1CCCN1C(=O)[C@@H]1CCC(=O)N1)C(=O)NCC(=O)N[C@@H](CC(C)C)C(=O)N[C@@H](CCSC)C(N)=O` ([pGlu]PSKDAFIGLM-NH2), the activation is inactive: -13.7%.

Turning to `C[C@@H]1O[C@@H](OC[C@H]2O[C@@H](Oc3c(-c4ccc(O)c(O)c4)oc4cc(O)cc(O)c4c3=O)[C@H](O)[C@@H](O)[C@@H]2O)[C@H](O)[C@H](O)[C@H]1O`, the activation was inactive: -2.1%.

As for `COc1ccc(-c2ccnc(-n3ncc(C(=O)NCc4ccon4)c3C3CC3)n2)cc1F`, the activation is inactive: -5.67%.

In the case of `C#CCCCCCCCCCCCCCCCC(=O)O`, the activation is inactive: -11% and inactive: -3.01%.

For `CC(C)C1=CC2=CC[C@H]3[C@](C)(C(=O)O)CCC[C@]3(C)C2CC1` (stereo not given in full), the activation is inactive: -26.6%.

Regarding `COCCNc1ccnc(-c2ccccc2C)n1`, the activation was inactive: -12.6%.

With `CO/N=C(\C(=O)N[C@@H]1C(=O)N2C(C(=O)O)=C(CSC(=O)c3ccco3)CS[C@H]12)c1csc(N)n1`, the activation was inactive: -4.02%.

Consider `N[C@@H]1CCN(O)C1=O`, for which the activation was inactive: -12%.

In the case of `CC(=O)Nc1ccc(OCC(O)CNC(C)C)cc1` (stereo not given), the activation is inactive: -22.5%.

Turning to `COc1ccc(Oc2ncc3nc(CCc4ccccc4)c(=O)n(C4CC4)c3n2)cc1`, the activation is inactive: -3.86%.

As for `O=C(c1csnn1)N1CCC2(CC1)CN(c1cccc(-c3ccccc3)c1)C2`, the activation is inactive: 17%.

On to `COc1ccc(C(=O)N2CCC3(CCCN(c4ccc(-c5ccccc5)cc4)C3)CC2)cc1`, for which the activation was inactive: -24.1%.

Regarding `CCCCCCCCCCC/C=C\C/C=C\CCCC(=O)O`, the activation is inactive: -13.4%.

Regarding `Cc1c(C)c2c(c(C)c1O)CCC(C)(CCCC(C)CCCC(C)CCCC(C)C)O2` (stereo not given), the activation was inactive: -51.9%.

As to `CS(=O)(=O)Nc1cccc(-c2ccc3ncnc(N4CCNCC4)c3c2)c1`, the activation is inactive: -1.96%.

`CCNCCCNCCCCNCCCNCC`: the activation is inactive: -8.78%.

For `COc1cc(C)c(Cc2cnc(N)nc2N)cc1OC`, the activation is inactive: 7.06%.

Consider `Cc1cccc(C)c1NC(=O)CN1CCN(CCCC(c2ccc(F)cc2)c2ccc(F)cc2)CC1`, for which the activation is inactive: -6.44%.

Regarding `Cc1nc(N=Nc2cc(S(=O)(=O)O)c3cc([N+](=O)[O-])cc(S(=O)(=O)O)c3c2)c(COP(=O)(O)O)c(C=O)c1O`, the activation is inactive: -29.7% and inactive: -12.5% and inactive: -14.4%.

Consider `Cc1cccc(C2CN(C)CCc3c2cc(O)c(O)c3Cl)c1` (stereo not given), for which the activation was inactive: -20.7%.

Consider `CC/C=C(\C(=O)N[C@@H]1C(=O)N2C(C(=O)OCOC(=O)C(C)(C)C)=C(COC(N)=O)CS[C@H]12)c1csc(N)n1`, for which the activation is inactive: 8.04% and inactive: -8.65%.

`COc1cccc2ccc(CN3CCC4(CC3)c3ccccc3[C@@H](NC(=O)c3ccccc3)[C@@H]4O)nc12`: the activation was inactive: 2.53%.

On to `C=CC(C)(O)CCC=C(C)C` (stereo not given), for which the activation is inactive: 6.76%.

Take `Cc1ccccc1`: the activation was inactive: 5.62%.

On to `COc1c2c(cc3c1C(CC(O)C(C)C)N(C)CC3)OCO2` (stereo not given), for which the activation was inactive: -24.6%.

Turning to `CC(=O)O[C@]1(C(C)=O)CC[C@H]2[C@@H]3C=C(C)C4=CC(=O)CC[C@]4(C)[C@H]3CC[C@@]21C`, the activation is inactive: -10.2%.

As to `C=C1[C@H](CO)[C@@H](O)C[C@@H]1n1cnc2c(=O)[nH]c(N)nc21`, the activation was inactive: -16.8%.

Turning to `CN(C)c1ncc2nc(-c3ccc(F)cc3)c(=O)n(Cc3cccs3)c2n1`, the activation is inactive: -14.6%.

Regarding `CCNC(=O)NCc1cccc(Cl)c1`, the activation is inactive: 0.53%.

Turning to `Cc1nc(NCc2cccc3c2OCO3)sc1-c1ccn(CC2CCCN(C)C2)n1` (stereo not given), the activation was inactive: -7.2%.

As for `NC[C@H]1O[C@H](O[C@H]2[C@H](O)[C@@H](O[C@H]3O[C@H](CO)[C@@H](O)[C@H](N)[C@H]3O)[C@H](N)C[C@@H]2N)[C@H](N)[C@@H](O)[C@@H]1O`, the activation is inactive: -14.3% and inactive: -6.5%.

Regarding `CS(=O)(=O)N1CCC2(CCCN(c3cccc(-c4ccccc4)c3)C2)CC1`, the activation is inactive: -0.219%.

As to `C[C@@H](CSc1ccccc1)CN1CC[C@H](C(C)(C)C)CCC1=O`, the activation is inactive: -31.2%.

For the compound `CN1CCc2cc3c(cc2[C@@H]1[C@@H]1C(=O)Oc2c1ccc1c2OCO1)OCO3`, the activation is inactive: -14.9%.

For `Cc1nc2ccccc2nc1/C=C/c1ccc(N(C)C)cc1`, the activation was inactive: -42.8%.

As to `CC1CCCC(C)N1NC(=O)c1ccc(Cl)c(S(N)(=O)=O)c1` (stereo not given), the activation was inactive: -21.7% and inactive: 1.5%.

Regarding `O=S1(=O)CCO[C@H]2Cc3ccccc3[C@H]2N1Cc1cccc(C(F)(F)F)c1`, the activation is inactive: -29.1%.

As to `O=C(c1cccc(F)c1)N1CCC2(CCCN(Cc3ccncc3)C2)CC1`, the activation is inactive: -20.1%.

As to `O=c1cnc2cnc(N3CCNCC3)nc2n1CCc1ccccc1`, the activation is inactive: -14%.

For the compound `Cc1noc(C)c1C(=O)N1CCC2(CCCN(C(=O)NC(C)C)C2)CC1`, the activation is inactive: -10.7%.

`COc1cccc(-n2c(SC)nnc2C2CCN(Cc3cccc(OC)c3O)CC2)c1`: the activation was inactive: -21.3%.

Take `Cc1cccc(CNc2nc(-c3ccc(C(=O)N(C)C)cc3)nc3ccccc23)c1`: the activation is inactive: -24.7%.

On to `Nc1nnc(-c2cccc(Cl)c2Cl)c(N)n1`, for which the activation is inactive: -4.69% and inactive: 6.66% and inactive: -60.6%.
